Test results taken from paper PMC9911399, “Two distinct binding modes provide the RNA-binding protein RbFox with extraordinary sequence specificity”.
Substitutions are numbered along the chain they refer to; changes in the protein carry UniProt numbers. The list shows a part of the results.

T1: RBFOX1 RRM (Homo sapiens, UniProt Q9NWB1 109-208)
T1 sequence: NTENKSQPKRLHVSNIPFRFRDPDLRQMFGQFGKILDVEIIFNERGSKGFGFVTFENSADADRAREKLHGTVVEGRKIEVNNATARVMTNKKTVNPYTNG

B1: UGGUGUC (DNA:RNA)
RNA: GGGAGACCGGAAUUCAGAUUGUCCUGGUGUCUUAAAUCCCGUCGUAGCCACCA
DNA 1: CAATCTGAATTCCGGTCTCCC
DNA 2: TGGTGGCTACGACGGGATT
B2: GAUGGAA (DNA:RNA)
RNA: B1 RNA with U25G, G26A, G27U, U28G, U30A, C31A
DNA 1: CAATCTGAATTCCGGTCTCCC
DNA 2: TGGTGGCTACGACGGGATT
B3: UGGGCUC (DNA:RNA)
RNA: B1 RNA with U28G, G29C
DNA 1: CAATCTGAATTCCGGTCTCCC
DNA 2: TGGTGGCTACGACGGGATT
B4: GAAAAAC (DNA:RNA)
RNA: B1 RNA with U25G, G26A, G27A, U28A, G29A, U30A
DNA 1: CAATCTGAATTCCGGTCTCCC
DNA 2: TGGTGGCTACGACGGGATT
B5: GAGUGAA (DNA:RNA)
RNA: B1 RNA with U25G, G26A, U30A, C31A
DNA 1: CAATCTGAATTCCGGTCTCCC
DNA 2: TGGTGGCTACGACGGGATT
B6: UGUGUGU (DNA:RNA)
RNA: B1 RNA with G27U, U28G, G29U, U30G, C31U
DNA 1: CAATCTGAATTCCGGTCTCCC
DNA 2: TGGTGGCTACGACGGGATT
B7: ACACUGU (DNA:RNA)
RNA: GGGAGACCGGAAUUCAGAUUGUCCACACUGUUUAAAUCCCGUCGUAGCCACCA
DNA 1: CAATCTGAATTCCGGTCTCCC
DNA 2: TGGTGGCTACGACGGGATT
B8: UAGCUCG (DNA:RNA)
RNA: B7 RNA with A25U, C26A, A27G, G30C, U31G
DNA 1: CAATCTGAATTCCGGTCTCCC
DNA 2: TGGTGGCTACGACGGGATT
B9: GAACAGG (DNA:RNA)
RNA: B7 RNA with A25G, C26A, U29A, U31G
DNA 1: CAATCTGAATTCCGGTCTCCC
DNA 2: TGGTGGCTACGACGGGATT
B10: CUGGGCU (DNA:RNA)
RNA: B1 RNA with U25C, G26U, U28G, U30C, C31U
DNA 1: CAATCTGAATTCCGGTCTCCC
DNA 2: TGGTGGCTACGACGGGATT
B11: UCCGUCA (DNA:RNA)
RNA: B7 RNA with A25U, A27C, C28G, G30C, U31A
DNA 1: CAATCTGAATTCCGGTCTCCC
DNA 2: TGGTGGCTACGACGGGATT
B12: GCGCUGU (DNA:RNA)
RNA: B7 RNA with A25G, A27G
DNA 1: CAATCTGAATTCCGGTCTCCC
DNA 2: TGGTGGCTACGACGGGATT
B13: UUUUCGA (DNA:RNA)
RNA: B1 RNA with G26U, G27U, G29C, U30G, C31A
DNA 1: CAATCTGAATTCCGGTCTCCC
DNA 2: TGGTGGCTACGACGGGATT
B14: ACGCGCC (DNA:RNA)
RNA: B7 RNA with A27G, U29G, G30C, U31C
DNA 1: CAATCTGAATTCCGGTCTCCC
DNA 2: TGGTGGCTACGACGGGATT
B15: CCAUGUG (DNA:RNA)
RNA: B1 RNA with U25C, G26C, G27A, C31G
DNA 1: CAATCTGAATTCCGGTCTCCC
DNA 2: TGGTGGCTACGACGGGATT
B16: CCAUAGA (DNA:RNA)
RNA: B7 RNA with A25C, C28U, U29A, U31A
DNA 1: CAATCTGAATTCCGGTCTCCC
DNA 2: TGGTGGCTACGACGGGATT
B17: AUAACAA (DNA:RNA)
RNA: B7 RNA with C26U, C28A, U29C, G30A, U31A
DNA 1: CAATCTGAATTCCGGTCTCCC
DNA 2: TGGTGGCTACGACGGGATT
B18: AUCAUGA (DNA:RNA)
RNA: B7 RNA with C26U, A27C, C28A, U31A
DNA 1: CAATCTGAATTCCGGTCTCCC
DNA 2: TGGTGGCTACGACGGGATT
B19: CUUUUUU (DNA:RNA)
RNA: B7 RNA with A25C, C26U, A27U, C28U, G30U
DNA 1: CAATCTGAATTCCGGTCTCCC
DNA 2: TGGTGGCTACGACGGGATT
B20: AAACUUG (DNA:RNA)
RNA: B7 RNA with C26A, G30U, U31G
DNA 1: CAATCTGAATTCCGGTCTCCC
DNA 2: TGGTGGCTACGACGGGATT

Biological target: T1, RBFOX1 RRM
Assay: EMSA; HiTS-Eq, 1 nM pool, 10 min; buffer printed only for the single-RNA assays: 10 mM Tris pH 7.5, 150 mM NaCl, 3.4 mM EDTA, 0.001% NP-40, 30 C
Conditions: tags: His6 N-terminal (pET28a); label: 5' 32P
Method in brief: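 Relative association constants, normalised to the cognate motif, were derived by comparing read counts of each RNA species with those of the control reaction. The RNA sequenced was the free fraction, separated by 8% native PAGE after a 10 min equilibration in 50 µL of 1 nM 5′-radiolabelled RNA (7 randomized nucleotides) with increasing concentrations of purified wild-type or mutant RbFox RRM.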

| Binder | binding signal |
| --- | --- |
| B1 | 0.031 KA relative to UGCAUGU |
| B2 | 0.0124 KA relative to UGCAUGU |
| B3 | 0.0362 KA relative to UGCAUGU |
| B4 | 0.00263 KA relative to UGCAUGU |
| B5 | 0.00705 KA relative to UGCAUGU |
| B6 | 0.0346 KA relative to UGCAUGU |
| B7 | 0.00533 KA relative to UGCAUGU |
| B8 | 0.0341 KA relative to UGCAUGU |
| B9 | 0.0111 KA relative to UGCAUGU |
| B10 | 0.0227 KA relative to UGCAUGU |
| B11 | 0.00695 KA relative to UGCAUGU |
| B12 | 0.0203 KA relative to UGCAUGU |
| B13 | 0.0193 KA relative to UGCAUGU |
| B14 | 0.00995 KA relative to UGCAUGU |
| B15 | 0.0106 KA relative to UGCAUGU |
| B16 | 0.00303 KA relative to UGCAUGU |
| B17 | 0.00146 KA relative to UGCAUGU |
| B18 | 0.00593 KA relative to UGCAUGU |
| B19 | 0.0106 KA relative to UGCAUGU |
| B20 | 0.0047 KA relative to UGCAUGU |
